Some of the results follow. Single values are uncertain, as repeats are few or missing.
How the values were obtained:
Test in all cases: cell count relative to DMSO control; melanoma cells; higher = more viable cells
Conditions in all cases: library dose: standard library concentration; 72 h; first compound 2 µM
G361 = system: G361
IPC-298 = system: IPC-298
IST-MEL1 = system: IST-MEL1
LB2518-MEL = system: LB2518-MEL
LOXIMVI = system: LOXIMVI
MEL-HO = system: MEL-HO
MZ2-MEL = system: MZ2-MEL
MeWo = system: MeWo
RPMI7951 = system: RPMI7951
RVH-421 = system: RVH-421
SkMel28 = system: SkMel28
SkMel2 = system: SkMel2
SkMel30 = system: SkMel30
SkMel5 = system: SkMel5
UACC257 = system: UACC257
UACC62 = system: UACC62
WM115 = system: WM115
WM1716 = system: WM1716
WM1745 = system: WM1745
WM3526 = system: WM3526
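Also: cells treated in 1,536-well plates, then fixed and DAPI-stained, with nuclei counted from automated high-throughput microscope images.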

Row | SMILES | cell count (G361) | cell count (IPC-298) | cell count (IST-MEL1) | cell count (LB2518-MEL) | cell count (LOXIMVI) | cell count (MEL-HO) | cell count (MZ2-MEL) | cell count (MeWo) | cell count (RPMI7951) | cell count (RVH-421) | cell count (SkMel28) | cell count (SkMel2) | cell count (SkMel30) | cell count (SkMel5) | cell count (UACC257) | cell count (UACC62) | cell count (WM115) | cell count (WM1716) | cell count (WM1745) | cell count (WM3526)
1 | CCCCCCCCCCCCCCCCCCOP(=O)([O-])OC1CC[N+](C)(C)CC1 [Perifosine] + NC(=O)Nc1cc(-c2cccc(F)c2)sc1C(=O)N[C@H]1CCCNC1 [AZD7762] (partner dose 0.1 µM) | 99.6% | 97.3% | 75.2% | 64% | 96.2% | 102% | 133% | 89.1% | 27.6% | 116% | 23.2% | 72.1% | 86.3% | 96.2% | 125% | 86.9% | 81.7% | 72.2% | 53.5% | 79%
2 | CCCCCCCCCCCCCCCCCCOP(=O)([O-])OC1CC[N+](C)(C)CC1 [Perifosine] + COc1cc2c(Oc3ccc4[nH]c(C)cc4c3F)ncnc2cc1OCCCN1CCCC1 [cediranib] (partner dose 2 µM) | 96.3% | 110% | 109% | 108% | 70.5% | 97.6% | 107% | 97.3% | 27.3% | 94.4% | 105% | 85.9% | 86.6% | 91.1% | 99.3% | 96.5% | 103% | 111% | 94.7% | 84.5%
3 | C[C@@H](N)c1ccc(C(=O)Nc2ccnc3[nH]ccc23)cc1 + Cn1cncc1[C@@](N)(c1ccc(Cl)cc1)c1ccc2c(c1)c(-c1cccc(Cl)c1)cc(=O)n2C [tipifarnib] (partner dose 0.05 µM) | 75% | 100% | 70.8% | 88.1% | 74.8% | 83.1% | 83.8% | 82.3% | 63.3% | 68.8% | 70.4% | 75.7% | 81.3% | 66.4% | 77.6% | 70.6% | 68.6% | 55.4% | 60.8% | 79.8%
4 | CCCCCCCCCCCCCCCCCCOP(=O)([O-])OC1CC[N+](C)(C)CC1 [Perifosine] + CN(C)S(=O)(=O)c1ccc2c(c1)/C(=C/c1cc3c([nH]1)CCCC3)C(=O)N2 [SU6656] (partner dose 2 µM) | 72.9% | 67.2% | 83.8% | 67.6% | 87.8% | 91.5% | 95.6% | 80.4% | 24.2% | 86.5% | 67.7% | 82.4% | 79.1% | 85.8% | 72.4% | 96.2% | 55.3% | 67.8% | 60.2% | 74.8%
5 | Cn1sc(=O)n(Cc2ccccc2)c1=O + CN1CCN(c2ccc3nc(-c4c(N)c5c(F)cccc5[nH]c4=O)[nH]c3c2)CC1 [Dovitinib] (partner dose 0.5 µM) | 64% | 65.3% | 79.4% | 38.4% | 107% | 76.8% | 42.1% | 47.8% | 101% | 88.1% | 35.9% | 62% | 84.7% | 56.7% | 85.6% | 66.3% | 53.1% | 88.3% | 64.3% | 63.2%
6 | CCCCCCCCCCCCCCCCCCOP(=O)([O-])OC1CC[N+](C)(C)CC1 [Perifosine] + CS(=O)(=O)c1ccc(C(=O)Nc2ccc(Cl)c(-c3ccccn3)c2)c(Cl)c1 [vismodegib] (partner dose 5 µM) | 95.1% | 86.9% | 91.8% | 93.4% | 94.9% | 82.5% | 112% | 85.7% | 51% | 92.7% | 62% | 78.5% | 82.6% | 119% | 93.3% | 64.3% | 101% | 84.4% | 92.4% | 89.4%
7 | CCCCCCCCCCCCCCCCCCOP(=O)([O-])OC1CC[N+](C)(C)CC1 [Perifosine] + O=C(Nc1cccc(Cl)c1)Nc1ncc(CCNc2ncnc3ccsc23)s1 [SNS314] (partner dose 0.004 µM) | 61.7% | 83.7% | 54.7% | 79.9% | 58.1% | 76.2% | 79.9% | 59% | 31.2% | 83.2% | 50.6% | 82.4% | 92.7% | 87.1% | 82.6% | 77% | 41.6% | 44.8% | 49% | 74.4%
8 | Cn1sc(=O)n(Cc2ccccc2)c1=O + NC1(c2ccc(-c3nc4ccn5c(=O)[nH]nc5c4cc3-c3ccccc3)cc2)CCC1 [MK2206] (partner dose 2 µM) | 81.5% | 83.6% | 84.6% | 80% | 84.1% | 75.1% | 92.5% | 79.8% | 79.5% | 76% | 63.3% | 73.4% | 88.2% | 92.8% | 88.1% | 69.6% | 68.7% | 101% | 92.3% | 71.2%
9 | Cn1sc(=O)n(Cc2ccccc2)c1=O + COc1ccc(C2=N[C@@H](c3ccc(Cl)cc3)[C@@H](c3ccc(Cl)cc3)N2C(=O)N2CCNC(=O)C2)c(OC(C)C)c1 [Nutlin-3] (partner dose 0.5 µM) | 75.3% | 103% | 104% | 70.4% | 53.3% | 77.6% | 101% | 144% | 102% | 86.9% | 61.3% | 85.2% | 91.9% | 86.7% | 90% | 67% | 99.5% | 91.2% | 82.1% | 102%
10 | C[C@@H](N)c1ccc(C(=O)Nc2ccnc3[nH]ccc23)cc1 + Nc1cccc2c1CN(C1CCC(=O)NC1=O)C2=O [lenalidomide] (partner dose 5 µM) | 86% | 103% | 87.8% | 102% | 101% | 70.6% | 53.4% | 74.9% | 71.6% | 57.8% | 60.6% | 85.9% | 86.1% | 69% | 79.5% | 90.8% | 107% | 50.1% | 53.9% | 76.2%
11 | CCCCCCCCCCCCCCCCCCOP(=O)([O-])OC1CC[N+](C)(C)CC1 [Perifosine] + CC(=O)c1c(C)c2cnc(Nc3ccc(N4CCNCC4)cn3)nc2n(C2CCCC2)c1=O [palbociclib] (partner dose 0.2 µM) | 67.8% | 74.2% | 83.7% | 73.1% | 69.3% | 89.2% | 73.3% | 65.2% | 29.5% | 74.7% | 35.7% | 68% | 74.4% | 79.5% | 74.3% | 68.4% | 67.9% | 41% | 73.1% | 55.5%
12 | CCCCCCCCCCCCCCCCCCOP(=O)([O-])OC1CC[N+](C)(C)CC1 [Perifosine] + O=C(/C=C/c1cccnc1)NCCCCC1CCN(C(=O)c2ccccc2)CC1 [FK866] (partner dose 0.05 µM) | 3.25% | 31.3% | 50.1% | 66.5% | 106% | 44% | 37.4% | 107% | 85.2% | 36.3% | 80.1% | 14.2% | 137% | 128% | 101% | 107% | 104% | 95.9% | 108% | 113%
13 | C[C@@H](N)c1ccc(C(=O)Nc2ccnc3[nH]ccc23)cc1 + CC(=O)c1c(C)c2cnc(Nc3ccc(N4CCNCC4)cn3)nc2n(C2CCCC2)c1=O [palbociclib] (partner dose 0.2 µM) | 53.3% | 73.9% | 73.1% | 65.9% | 78.9% | 32.4% | 45% | 44.6% | 41.5% | 80.6% | 32.1% | 70.2% | 58.6% | 40.2% | 33.2% | 48.6% | 65.6% | 30.3% | 52.2% | 49.2%
14 | C[C@@H](N)c1ccc(C(=O)Nc2ccnc3[nH]ccc23)cc1 + NC(=O)Nc1cc(-c2cccc(F)c2)sc1C(=O)N[C@H]1CCCNC1 [AZD7762] (partner dose 0.1 µM) | 107% | 131% | 75.6% | 86.2% | 75.3% | 93.2% | 72.1% | 70% | 39.4% | 59.3% | 79.4% | 133% | 118% | 69.9% | 67% | 73.2% | 71.5% | 33.1% | 41.9% | 64.7%
15 | CCCCCCCCCCCCCCCCCCOP(=O)([O-])OC1CC[N+](C)(C)CC1 [Perifosine] + C=C(c1ccc(C(=O)O)cc1)c1cc2c(cc1C)C(C)(C)CCC2(C)C [Bexarotene] (partner dose 10 µM) | 86.1% | 75% | 83.2% | 114% | 91.8% | 88.1% | 66.8% | 95.1% | 42.8% | 110% | 82.6% | 83% | 76.5% | 76.7% | 80.2% | 101% | 76.1% | 77.8% | 81.2% | 81.9%
16 | Cn1sc(=O)n(Cc2ccccc2)c1=O + Cc1ccc(NC(=O)c2cccc(N(C)C)c2)cc1NC(=O)c1ccc(O)cc1 [ZM336372] (partner dose 10 µM) | 66.7% | 92.2% | 79.6% | 88.6% | 80.9% | 79.4% | 88.8% | 90.5% | 39.6% | 104% | 84% | 87.9% | 84.8% | 68.4% | 97.1% | 72.4% | 88% | 82.7% | 87.9% | 86.4%
17 | CCCCCCCCCCCCCCCCCCOP(=O)([O-])OC1CC[N+](C)(C)CC1 [Perifosine] + CN1CCN(c2ccc3nc(-c4c(N)c5c(F)cccc5[nH]c4=O)[nH]c3c2)CC1 [Dovitinib] (partner dose 0.5 µM) | 53.2% | 63.3% | 76% | 58.9% | 91.4% | 70.3% | 37.5% | 60.2% | 10.8% | 65.6% | 45.2% | 55.9% | 87% | 62.7% | 78.7% | 77.7% | 76.4% | 72.3% | 47.5% | 73.8%
18 | CCCCCCCCCCCCCCCCCCOP(=O)([O-])OC1CC[N+](C)(C)CC1 [Perifosine] + Cn1sc(=O)n(Cc2ccccc2)c1=O [TDZD-8] (partner dose 2 µM) | 87.5% | 81.1% | 93.8% | 78.3% | 103% | 102% | 91.3% | 83% | 33.4% | 111% | 65.2% | 89.5% | 103% | 98.2% | 99.6% | 99.7% | 81.1% | 88.1% | 59.6% | 77.8%
19 | CCCCCCCCCCCCCCCCCCOP(=O)([O-])OC1CC[N+](C)(C)CC1 [Perifosine] + Cc1cc(N2CCOCC2)cc2[nH]c(-c3c(NC[C@@H](O)c4cccc(Cl)c4)cc[nH]c3=O)nc12 [BMS536924] (partner dose 1 µM) | 101% | 110% | 94.7% | 93.6% | 89.7% | 99.6% | 130% | 80.5% | 29% | 112% | 51.1% | 67.4% | 88% | 111% | 99.7% | 92.8% | 129% | 103% | 66.5% | 74.9%

Source: the supplement of paper PMC4604168 (melanoma cell lines)
